Assay results reported in PubChem BioAssay AID624296 (National Center for Advancing Translational Sciences (NCATS), 2012).
The whole screen tested about 350,000 compounds, of which about 9,900 (2.8%) were called active. Inconclusive means that the source gave no clear call. Such entries were picked first, then a sample of the others. The call rests on the fitted dose curve; in most records, active means well fitted activation curve with a large enough effect; inconclusive means small, poorly fitted or top-dose-only effect; inactive means no such curve, though single readings can be large or run the other way. No potency is given beside an inconclusive call; the fits are too rough.

Experiment: A quantitative high throughput screen for small molecules that induce DNA re-replication in MCF 10a normal breast cells. Further: nearly all actives have a fitted effect of over 50% in size. On activity, positive = re-replication: % of control where 0% means no effect.
Details: MCF 10A DNA re-replication, Hoechst nuclear intensity, 48 h; activity, positive = re-replication: at 46.1 µM (top of the series)
Potency means the concentration at half of the fitted maximal effect; tags describe the fitted curve by direction and shape.

SMILES	Potency	activity, positive = re-replication
COc1ccc(C(=O)Nc2ccccc2[N+](=O)[O-])cc1S(=O)(=O)N1CCOCC1	inconclusive [activator, single point]	
COc1ccc(C(=O)/C=C2/C(=O)Nc3ccccc32)c(OC)c1	active: 23.1 µM	
CC(C)c1ccc(Nc2ncccc2C(=O)O)cc1	inconclusive [activator, partial curve, poor fit]	
CCOc1ccc(C(c2c(NC(=O)c3ccccc3)sc(C)c2C)N2CCN(CCO)CC2)cc1 (stereo unspecified)	inconclusive [activator, single point]	
c1cncc(Nc2nc(-c3ccncc3)cs2)c1	inconclusive [activator, single point]	
CCN(CC(=O)Nc1ccc(NC(C)=O)cc1)C(=O)/C=C/c1cn(-c2ccccc2)nc1-c1ccc(C)cc1		inactive: -3.57%
COc1ccccc1/C=C1\SC(=S)N(CCC(=O)NCCCn2ccnc2)C1=O		inactive: -14.3%
CC1CCCCN1CCCNc1ccc(C(CC(N)=O)NC(=O)Cc2ccc(Br)cc2)cc1[N+](=O)[O-] (stereo unspecified)		inactive: 22.1%
COc1cc(/C=C/C(=O)OCC(=O)Nc2cc(C(F)(F)F)ccc2N2CCOCC2)ccc1O	inconclusive [activator, partial curve]	
S=C1NC2=C(C(c3ccc(Br)cc3)N1)N1CCC2CC1 (stereo unspecified)		inactive: 0.376%
CNC(=S)NNC(=O)c1oc2nc(-c3ccccc3)cc(C)c2c1N	active: 2.59 µM	
COC(=O)C1CCN(Cc2c(C(=O)N3C[C@@H](C)O[C@@H](C)C3)nc3ccc(Cl)cn23)CC1	inconclusive [activator, full curve, poor fit]	
COc1ccccc1-c1oc2ccccc2c1-c1ccc2c(c1)OCO2	inconclusive [activator, single point]	
Cc1nc(NC(=O)C(Cl)Cl)sc1C(=O)N(C)C		inactive: -4.08%
COc1ccccc1Cn1c(=O)c2ccccc2n2c(Sc3ncnc4sccc34)nnc12	active: 18.4 µM	
O=C(NCC1CCCO1)C(Cc1ccccc1)N1C(=O)C2C3C=CC(C4CC34)C2C1=O (stereo unspecified)	active: 14.6 µM	
N#Cc1ccc(OCC(=O)Nc2ccc(N3CCCC3)cc2)cc1		inactive: -3.68%
O=C(Nc1c(C(=O)N2CCC(N3CCCCC3)CC2)oc2ccccc12)c1ccc(F)cc1	inconclusive [activator, partial curve, poor fit]	
Cc1cccc(Oc2ccccc2NC(=O)C2=COCCO2)c1		inactive: 0.364%
Cc1cccc(OCC(=O)Nc2ccc(N3CCN(C(=O)c4ccco4)CC3)cc2)c1C		inactive: 6.82%
O=C(Nc1c2c(nn1-c1ccccc1)CSC2)c1ccc(N2C(=O)CCC2=O)cc1	inconclusive [activator, partial curve, poor fit]	
Cc1cccc(/C(N)=N/OC(=O)C23CC4CC(CC(C4)C2)C3)c1	inconclusive [activator, single point]	
CCCC(C(=O)Nc1ccc(S(=O)(=O)N2CCOCC2)cc1)c1ccccc1 (stereo unspecified)	inconclusive [activator, single point]	
CCN1c2ccccc2-c2nc3ccccc3n2C1c1ccco1 (stereo unspecified)	inconclusive [activator, partial curve, poor fit]	

SMILES	Potency	activity, positive = re-replication
CCC(C(=O)NC1CCCC1)N(C(=O)Cn1nnc(-c2ccc(C)o2)n1)c1cnc2ccccc2c1 (stereo unspecified)	inconclusive [activator, single point]	
CN(C)CCCNC(=O)c1cc(C(=O)Cc2ccc(Cl)cc2)c[nH]1	inconclusive [activator, single point]	
COc1ccc(C2C(C(=O)Nc3cc(OC)c(OC)c(OC)c3)c3ccccc3C(=O)N2C)cc1 (stereo unspecified)	inconclusive [activator, full curve]	
CCCn1nnnc1NCc1ccc(Cl)cc1Cl		inactive: 0.0583%
CCc1ccc(-c2cc(C(F)(F)F)n3nc(C(=O)Nc4cnn(Cc5ccccc5C)c4)cc3n2)s1	inconclusive [activator, partial curve, poor fit]	
O=C(Nc1c2c(nn1-c1ccccc1)CS(=O)(=O)C2)c1cc2ccccc2o1		inactive: 14.4%
O=C(Nc1ccc(NC(=O)c2ccccc2Cl)cc1)c1cccnc1		inactive: -5.06%
CCN1CCN(CCCNC(=O)c2ccc(CS(=O)c3ccc(Br)cc3)o2)CC1 (stereo unspecified)		inactive: 0.314%
COc1cccc(NC(=O)COc2cccnc2[N+](=O)[O-])c1		inactive: -7.21%
COc1ccc(C(=O)CN2CC(C)SC2=Nc2ccc(Cl)cc2)cc1 (stereo unspecified)	inconclusive [activator, single point]	
Nc1cc2[nH]c(=O)c3ccccc3c2cc1[N+](=O)[O-]		inactive: 3.77%
NC(=O)CC[C@@H]1NC(=O)[C@H](Cc2ccc(O)cc2)NC(=O)c2cc([N+](=O)[O-])cc(F)c2OCC[C@@H](C(N)=O)NC1=O		inactive: 3.84%
COc1ccc(S(=O)(=O)N2CCC(NC(=O)c3ccccc3)CC2)cc1	inconclusive [activator, partial curve, poor fit]	
CC(C(=O)NC1CCCC1)N1CCN(S(=O)(=O)c2ccccc2Cl)CC1 (stereo unspecified)		inactive: 5.71%
COc1ccc(/C=C(/NC(=O)c2ccco2)C(=O)N2CCOCC2)cc1		inactive: 1.08%
Cn1c(=O)n(CCCOc2ccc(Br)cc2)c2ccccc21		inactive: 2.21%
Oc1c(C=Nc2ccccc2)sc2ccccc12	inconclusive [activator, single point]	
CSc1nc(Cl)c(Br)c(Nc2c[nH]c(=O)[nH]c2=O)n1	inconclusive [activator, partial curve, poor fit]	
CCCCC(=O)Nc1nn(CCC)c2nc3ccccc3cc12	inconclusive [activator, single point]	
Fc1ccc2nc3[nH]c4ccccc4c3nc2c1	inconclusive [activator, single point]	
Cc1ccc2nc3c(cc(C#N)c(=O)n3-c3nccs3)c(=O)n2c1	inconclusive [activator, full curve]	
COc1ccc(CNC(=O)c2nc(S(=O)(=O)Cc3ccccc3)ncc2Cl)cc1	inconclusive [activator, single point]	
Cc1c(NC(=O)C(C)Sc2nc(N)cc(=O)[nH]2)c(=O)n(-c2ccccc2)n1C (stereo unspecified)		inactive: -5.44%
CN(c1ccccc1)S(=O)(=O)c1cccc(C(=O)NC2CCCC2)c1		inactive: -3.99%

SMILES	Potency	activity, positive = re-replication
CCN(CC)S(=O)(=O)c1cccc(C(=O)NC(Cc2c[nH]c3ccccc23)c2nnc3n2CCC3)c1 (stereo unspecified)		inactive: -1.28%
COc1ccccc1N(C)S(=O)(=O)c1ccc(C(=O)Nc2cccc(Br)c2)cc1	inconclusive [activator, partial curve, poor fit]	
CC(C)(C)c1cc(C(=O)NN)n(Cc2ccc(Cl)cc2Cl)n1	inconclusive [activator, partial curve, poor fit]	
CCOc1ccc(N2CC(O)(c3ccc(F)cc3)[N+]3=C2CCCC3)cc1 (stereo unspecified)		inactive: 29.5%
N#Cc1cc2[nH]c3ccccc3c2[n+](-c2ccc([N+](=O)[O-])cc2)c1N		inactive: 2.29%
O=C(Nc1ccc2nc3n(c(=O)c2c1)CCCCC3)C(=O)N1CCN(c2ccc(F)cc2)CC1	inconclusive [activator, full curve, poor fit]	
O=C(c1ccc(Cn2cnnn2)cc1)N1CCCC(Nc2ccc(F)cc2)C1 (stereo unspecified)	inconclusive [activator, single point]	
Cc1cccc(N2CCN(C(=O)CCCCCn3c(=S)[nH]c4ccc(N5CCOCC5)cc4c3=O)CC2)c1C	inconclusive [activator, single point]	
O=C(Nc1ccccc1OCc1ccccc1)c1ccccc1Br	active: 0.58 µM	
COc1cccc(/C=C2/SC(=S)N(CC(=O)Nc3nnc(C)s3)C2=O)c1	inconclusive [activator, single point]	
O=C(Nc1ccc(F)cc1F)c1cccc(C(=O)Nc2ccc(F)cc2F)n1	active: 6.51 µM	
COC(=O)c1scc(C)c1NC(=O)C1CCCCC1	inconclusive [activator, single point]	
Cc1ccsc1C(=O)NCCC(c1ccccc1)c1ccccc1	inconclusive [activator, single point]	
Cc1cc(C)cc(C(=O)OCC(=O)N2CCCCCC2)c1		inactive: 5.52%
O=C(Nc1cccc(S(=O)(=O)NCc2ccco2)c1)c1cc(-c2ccccc2)nc2ccccc12	inconclusive [activator, single point]	
Cc1ccc(C(C)C)c(OCC(O)CN(C)Cc2ccccc2)c1 (stereo unspecified)	inconclusive [activator, single point]	
Cc1ccc(SCc2ccc(C(=O)Nc3cccc([N+](=O)[O-])c3)cc2)cc1	active: 4.11 µM	
O=C(NCCNc1nccc(C(F)(F)F)n1)c1cccs1		inactive: -0.508%
Oc1ccc2oc3c(c2c1C=NCc1ccncc1)CCCC3	inconclusive [activator, single point]	
COc1cccc(CC(=O)Nc2cc(C(F)(F)F)ccc2N2CCCC2)c1	inconclusive [activator, partial curve]	
CCOC(=O)n1cc(-c2cnc(CNC(=O)C(C)(c3ccccc3)c3ccccc3)o2)c2ccccc21	inconclusive [activator, single point]	
CCOC(=O)CSc1nc2sc(C)c(C)c2c(=O)n1C	inconclusive [activator, partial curve, poor fit]	
COc1ccc2[nH]c(-c3ccc(C)cc3)cc(=O)c2c1	inconclusive [activator, full curve, poor fit]	
